cAMP reporter score and surface expression score data for two variants are collected here from the GPR68 mutational scans of Howard et al. (2025).

To fix the notation:
B1: GPR68, Q15743 (parent)
chain: MGNITADNSSMSCTIDHTIHQTLAPVVYVTVLVVGFPANCLSLYFGYLQIKARNELGVYLCNLTVADLFYICSLPFWLQYVLQHDNWSHGDLSCQVCGILLYENIYISVGFLCCISVDRYLAVAHPFRFHQFRTLKAAVGVSVVIWAKELLTSIYFLMHEEVIEDENQHRVCFEHYPIQAWQRAINYYRFLVGFLFPICLLLASYQGILRAVRRSHGTQKSRKDQIQRLVLSTVVIFLACFLPYHVLLLVRSVWEASCDFAKGVFNAYHFSLLLTSFNCVADPVLYCFVSETTHRDLARLRGACLAFLTCSRTGRAREAYPLGAPEASGKSGAQGEEPELLTKLHPAFQTPNSPGSGGFPTGRLA

Variants of B1 are the subject of data set [1]. Put plainly: cAMP reporter score (Enrich2 score, wild type = 0); higher = more signal; HEK293T, FACS bins.
In data set [2] the parent is B1. The data set can be described thus: surface expression score (Enrich2 score, wild type = 0); higher = more signal; HEK293T, FACS bins.

Scores whose standard error is large were omitted. Two further conditions of the source, in which the scores hardly spread, are not listed. Read del as a deletion of the residues named and ins as an insertion between two positions. For part of these data: The concentration of ogerin is not given here.

Consider MGNITADNSSMHCTIDHTIHQTLAPVVYVTVLVVGFPANCLSLYFGYLQIKARNELGVYLCNLTVADLFYICSLPFWLQYVLQHDNWSHGDLSCQVCGILLYENIYISVGFLCCISVDRYLAVAHPFRFHQFRTLKAAVGVSVVIWAKELLTSIYFLMHEEVIEDENQHRVCFEHYPIQAWQRAINYYRFLVGFLFPICLLLASYQGILRAVRRSHGTQKSRKDQIQRLVLSTVVIFLACFLPYHVLLLVRSVWEASCDFAKGVFNAYHFSLLLTSFNCVADPVLYCFVSETTHRDLARLRGACLAFLTCSRTGRAREAYPLGAPEASGKSGAQGEEPELLTKLHPAFQTPNSPGSGGFPTGRLA [S12H], for which the cAMP reporter score in data set [1] (pH 5.5) is 0.366; in data set [1] (pH 6), -0.128; in data set [1] (pH 6, modulator: ogerin), 0.54; in data set [1] (pH 6.5, modulator: ogerin) it was 0.394. Further, in data set [2], the surface expression score turned out to be 0.675.
Take MGNITADNSSMICTIDHTIHQTLAPVVYVTVLVVGFPANCLSLYFGYLQIKARNELGVYLCNLTVADLFYICSLPFWLQYVLQHDNWSHGDLSCQVCGILLYENIYISVGFLCCISVDRYLAVAHPFRFHQFRTLKAAVGVSVVIWAKELLTSIYFLMHEEVIEDENQHRVCFEHYPIQAWQRAINYYRFLVGFLFPICLLLASYQGILRAVRRSHGTQKSRKDQIQRLVLSTVVIFLACFLPYHVLLLVRSVWEASCDFAKGVFNAYHFSLLLTSFNCVADPVLYCFVSETTHRDLARLRGACLAFLTCSRTGRAREAYPLGAPEASGKSGAQGEEPELLTKLHPAFQTPNSPGSGGFPTGRLA [S12I]: the cAMP reporter score in data set [1] (pH 5.5) amounted to 0.328; in data set [1] (pH 6, modulator: ogerin) it was 0.776; in data set [1] (pH 6.5, modulator: ogerin), 0.376. In addition, the surface expression score in data set [2] came to 0.652.
